# Experimental data reported in the supplement of paper PMC3724861.
# The list shows a part of the results.
# System: T1, Caupolican (Caup) homeodomain DNA-binding domain
# T1 sequence: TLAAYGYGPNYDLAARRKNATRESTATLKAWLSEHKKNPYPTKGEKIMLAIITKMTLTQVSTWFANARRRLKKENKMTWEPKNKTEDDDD
# Experiment: PBM E-score (8-mer, recovered from the published 9-mer minima) (E-score (dimensionless, -0.5 to 0.5)); Drosophila protein; higher = stronger relative binding preference, active = 0.31 or more
# Method in brief: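 Caup's homeodomain DNA-binding domain (residues 214-303) was made by in vitro transcription and translation and applied at 100 nM to custom-designed protein binding microarrays. Each value is an enrichment score that gives relative binding preference for a short DNA word, with higher meaning stronger. The 8-mer values were recovered from published 9-mer scores, each of which was the minimum of its two constituent 8-mer scores. A cutoff of 0.31 marks candidate sites.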
row,Sequence,PBM E-score
1,GTTTGTTA,inactive: 0.225
2,AATCCTTC,inactive: -0.00179
3,CACACCAC,inactive: 0.0793
4,TACGTTCA,inactive: 0.06
5,CAACGTGA,inactive: 0.0867
6,ATGATGCG,inactive: 0.0059
7,CCCGAGTC,inactive: -0.126
8,CCGCGCCG,inactive: -0.199
9,GCGGAACC,inactive: -0.0906
10,ACGCTACA,inactive: 0.191
11,GGTCCGAA,inactive: -0.0849
12,ACACCAAC,inactive: 0.0942
13,TGTTGTAA,active: 0.377
14,AGACTAGA,inactive: 0.0325
15,TACATATA,active: 0.379
16,CCATCTTC,inactive: -0.0417
17,TCACAGGA,≥ 0.124
18,AAAACTTA,inactive: 0.107
19,AGCCAAGG,inactive: -0.186
20,CCTTGCCC,inactive: -0.22
21,AATTTCAG,inactive: -0.0602
22,AATAACCG,inactive: -0.05
23,ATTTACAA,active: 0.361
24,TCCGTCAA,inactive: -0.00579
25,ATAACTTG,inactive: 0.197

row,Sequence,PBM E-score
1,GACGTGAA,inactive: -0.0186
2,GAAGCGGC,inactive: -0.179
3,AACTAGCC,inactive: 0.0343
4,AGGGGGGC,inactive: -0.385
5,ACGGCCCC,inactive: -0.253
6,ACAGCAAG,inactive: 0.148
7,CAGGAACA,inactive: 0.236
8,CTAGACAA,inactive: 0.0936
9,CTAGTCGC,inactive: -0.0329
10,CGCTCGGA,inactive: -0.127
11,CAGTTATA,inactive: 0.103
12,CCCGATAA,inactive: -0.0184
13,TCTGTGAA,inactive: 0.0782
14,TATATTCA,inactive: 0.157
15,GTATTGCA,inactive: 0.114
16,CCAAGTGG,inactive: -0.0542
17,CAATAACG,inactive: 0.0801
18,CCGTAGAC,inactive: -0.103
19,ACCTTCCT,inactive: -0.0679
20,AACCCCTC,inactive: -0.0731
21,AGTTCCAC,inactive: 0.0412
22,TATATGGA,inactive: 0.122
23,TACGCTAA,≥ 0.0305
24,ACGTGTTC,inactive: 0.279
25,CATCAGCG,inactive: 0.00046

row,Sequence,PBM E-score
1,CAAAAAAA,inactive: 0.00316
2,AGATTCAC,inactive: -0.0373
3,AACCAGCC,inactive: -0.0179
4,CGGCGCGC,inactive: -0.198
5,ATCCAAAC,inactive: 0.0766
6,CCAATACC,inactive: -0.0694
7,GCACCGGA,inactive: -0.174
8,CGAGTGGA,inactive: -0.0323
9,CAACATGC,active: 0.317
10,CTGTTTTA,inactive: 0.107
11,AAAAGGTC,inactive: -0.0926
12,TAGGCCGA,inactive: -0.151
13,CTTATTTA,inactive: 0.0764
14,CTTGTCCA,inactive: 0.287
15,CAACAATC,inactive: 0.258
16,ACCTAGAT,inactive: -0.00612
17,CGTCCGTA,inactive: -0.0112
18,GTCACAGA,inactive: 0.0877
19,ATAGCGAA,inactive: 0.132
20,CCCTCTAA,inactive: -0.144
21,CAACTCGC,inactive: 0.0673
22,AGACGGTC,inactive: -0.146
23,TGAGAGAA,inactive: -0.0365
24,CACGTACG,inactive: 0.0711
25,CCGGGCAG,inactive: -0.2

row,Sequence,PBM E-score
1,CAGCCGCG,inactive: -0.205
2,ATACAGTA,≥ 0.238
3,AAGCGTTG,inactive: 0.016
4,CTATAGCA,inactive: -0.00614
5,AGGAGAGC,inactive: -0.0646
6,AGAAGACA,inactive: 0.147
7,CGGAGCCC,inactive: -0.335
8,TATTTCCA,inactive: 0.0618
9,CGTGGTAC,inactive: 0.139
10,TCCATACA,inactive: 0.139
11,AAAAATGG,inactive: 0.0677
12,ACTTGACC,inactive: -0.0545
13,ACCGTGAC,inactive: 0.0634
14,AGCGTCTC,inactive: -0.163
15,AAGGACCG,inactive: -0.18
16,CAGCGTAG,inactive: -0.0479
17,CATGTCGG,active: 0.357
18,GACACGTA,active: 0.348
19,GGCTCACA,inactive: -0.0663
20,CCTCCGTA,inactive: -0.118
21,AGTCCTAG,inactive: -0.0619
22,GAGTATGC,inactive: 0.0129
23,CTACTTAA,inactive: -0.00454
24,CATTCAAG,inactive: -0.0431
25,CCTCCTGA,inactive: -0.0907

row,Sequence,PBM E-score
1,CATCGAGC,inactive: -0.0628
2,CAGTCGTC,inactive: -0.114
3,GAATGGCC,inactive: -0.151
4,CTCCGGTC,inactive: -0.212
5,GGACTTAC,inactive: 0.00601
6,CCGGTCCG,inactive: -0.27
7,CCCGTCTC,inactive: -0.23
8,TCCGAGGA,inactive: -0.0519
9,ATGAGATA,inactive: 0.0316
10,GTCATGTA,active: 0.43
11,GCGATCAA,inactive: 0.0681
12,TCAATCCA,inactive: 0.0169
13,CTAAGCAG,inactive: -0.0907
14,ATGGGTTG,inactive: 0.0997
15,GCACCCAA,inactive: -0.162
16,AGCTAGAC,inactive: -0.121
17,ACGAGCCT,inactive: -0.0401
18,ACCAGCAA,inactive: 0.0242
19,CTACCCTC,inactive: -0.192
20,AGCGTATC,inactive: -0.0326
21,GCCCTCGA,inactive: -0.164
22,CGTAGGCC,inactive: -0.133
23,GATTGGCA,inactive: -0.0454
24,ATCGTAGC,inactive: 0.0466
25,GACAACTA,inactive: 0.299

row,Sequence,PBM E-score
1,AAGCATAA,inactive: 0.0796
2,GATGCTAA,inactive: -0.0224
3,ACTCCGGC,inactive: -0.186
4,ACGGCGAC,inactive: -0.12
5,AATTTAGG,inactive: 0.0519
6,AGTGTGAA,≥ 0.151
7,AGCGTCCG,inactive: -0.102
8,GAATGTTA,inactive: 0.234
9,ATGCATCG,inactive: 0.108
10,AAAGAGAC,inactive: -0.0571
11,CCAGCAAC,inactive: -0.0279
12,CGGATTTA,inactive: -0.0143
13,AGACATAC,inactive: 0.222
14,AGAGGCAT,inactive: -0.106
15,CTAACGGC,inactive: -0.128
16,CGACGGGC,inactive: -0.184
17,CATTCGCG,inactive: -0.043
18,AATCGGGC,inactive: -0.00822
19,ACCTTAAT,≥ 0.0103
20,CAATTCAA,inactive: 0.101
21,CAAGCATG,inactive: 0.151
22,ATGACTCG,inactive: 0.0179
23,ACACGAGC,inactive: 0.172
24,ATTTAAAT,inactive: 0.0982
25,GGATTGCC,inactive: -0.17

row,Sequence,PBM E-score
1,AGATAAAG,inactive: 0.00787
2,ACAATCCA,≥ 0.156
3,AACTTAGC,inactive: -0.0396
4,CAGCTGCC,inactive: -0.215
5,AGTGTTTA,inactive: 0.176
6,CCCTTTGC,inactive: -0.0352
7,ATTTCGGC,inactive: -0.0153
8,ATTGGACG,inactive: -0.0389
9,GTATATAA,inactive: 0.238
10,AGAGAAAA,inactive: -0.0236
11,ACTTTGCC,inactive: -0.0656
12,AGTGACGG,inactive: -0.076
13,CACTACGG,inactive: -0.0927
14,ACGACGGC,inactive: -0.0299
15,ACATATAT,active: 0.343
16,TCCGATCA,inactive: 0.0958
17,GTCAGTGA,inactive: 0.022
18,AATTGAGT,inactive: 0.131
19,CGGTGCCC,inactive: -0.222
20,CTGTAACA,inactive: 0.289
21,AAAAAAGT,inactive: 0.0511
22,AAGGTCAT,inactive: -0.00089
23,CCACATCA,inactive: 0.00518
24,ACTCTGTG,inactive: 0.0887
25,ACCCCTGA,inactive: -0.0489

row,Sequence,PBM E-score
1,AACCCCGG,inactive: -0.172
2,ATGGATTC,inactive: 0.0469
3,CCGAGGCG,inactive: -0.26
4,TCACGGCA,inactive: -0.0212
5,ACGTAATC,inactive: 0.155
6,CTTCCGTA,inactive: -0.0405
7,ACTATCGG,inactive: -0.056
8,CAATGTCA,inactive: 0.293
9,ACACACGT,inactive: 0.254
10,AGCAAAAA,inactive: 0.0293
11,TGGACTAA,inactive: 0.0168
12,AGTCCTAA,inactive: 0.024
13,TAACACGA,active: 0.323
14,ACAGTCGG,inactive: -0.0363
15,CTTAGTTA,inactive: 0.075
16,GGATGACA,inactive: 0.191
17,ATCCAAGG,inactive: -0.117
18,AACTCCAG,inactive: -0.161
19,GGCTTAGA,inactive: -0.112
20,CTGCTCAA,inactive: -0.0253
21,ACTGTGAC,inactive: 0.106
22,GGCAAGCA,inactive: -0.119
23,AACCATAG,inactive: -0.0441
24,CATTCCAC,inactive: -0.0122
25,CCGCGATC,inactive: -0.125

row,Sequence,PBM E-score
1,CTGGGACC,inactive: -0.164
2,GCGGAAGC,inactive: -0.26
3,GTGATAGA,inactive: 0.0228
4,GCAATGAA,inactive: 0.0997
5,ACTTCACT,≥ 0.0481
6,AGTTGGCA,inactive: -0.00361
7,ATTTAAAG,inactive: 0.00458
8,AATAAGGA,inactive: 0.0417
9,ATTTTAGC,inactive: 0.00876
10,GGATTTCA,inactive: 0.0363
11,ATCTGGAC,inactive: -0.0495
12,AGGTCAGG,inactive: -0.165
13,GCGGCCCC,inactive: -0.34
14,TGTTTAAA,inactive: 0.241
15,CGCGTGTC,inactive: 0.201
16,TATGGGCA,inactive: -0.0516
17,ACCTGGTA,inactive: 0.104
18,ATCATTAG,inactive: 0.119
19,GAACAAGC,inactive: 0.302
20,ATCATACA,inactive: 0.302
21,GAAAAGCC,inactive: -0.165
22,ACAGCTAA,inactive: 0.141
23,ATTAGGTG,inactive: 0.136
24,GCGGAAGA,inactive: -0.111
